# Data: ChEMBL document CHEMBL5606460, “ASAP - DENV-2 NS2B-NS3 protease fluorescence single point” (2024)
# The whole screen tested about 2,000 compounds, of which about 110 (5.5%) showed an effect of 50% or more. This is one part of the list.
# Molecular target: Genome polyprotein (dengue virus type 2) (UniProt P29990)
# [1] = Thailand/16681/1984, Concentration 25.0 uM, Number of replicates 1.0
smiles,measurement,setting,value
N=C(N)NC[C@@H]1CCCN(C(=O)[C@H](Cc2ccc(CN)cc2)NC(=O)c2ccccc2)C1,inhibition,"Thailand/16681/1984, Concentration 49.5 uM, Number of replicates 2.0, Standard deviation 0.13440233809748103 %",-1.91%
same,inhibition,"Thailand/16681/1984, Concentration 99.01 uM, Number of replicates 2.0, Standard deviation 0.15262642465934906 %",-0.682%
same,inhibition,"Thailand/16681/1984, Concentration 198.0 uM, Number of replicates 2.0, Standard deviation 0.32119894086540085 %",4.21%
O=C(O)c1cnn(C2CCN(C(=O)c3ccnc4[nH]cnc34)CC2)c1,inhibition,"Thailand/16681/1984, Concentration 49.5 uM, Number of replicates 2.0, Standard deviation 1.214191700010942 %",-2.48%
same,inhibition,"Thailand/16681/1984, Concentration 99.01 uM, Number of replicates 2.0, Standard deviation 1.7130868961137902 %",-2.88%
same,inhibition,"Thailand/16681/1984, Concentration 198.0 uM, Number of replicates 2.0, Standard deviation 1.3863533153956358 %",-2.86%
CC(C)(C)C(=O)Nc1cccc(C(=O)O)c1,inhibition,"Thailand/16681/1984, Concentration 49.5 uM, Number of replicates 2.0, Standard deviation 0.010982962959756854 %",-2.02%
same,inhibition,"Thailand/16681/1984, Concentration 99.01 uM, Number of replicates 2.0, Standard deviation 1.054356857703926 %",-1.86%
same,inhibition,"Thailand/16681/1984, Concentration 198.0 uM, Number of replicates 2.0, Standard deviation 0.5997610339591201 %",-0.485%
CNc1ccc(-c2ccccc2C(=O)Nc2cnn(C)c2)cn1,inhibition,"Thailand/16681/1984, Concentration 49.5 uM, Number of replicates 2.0, Standard deviation 1.2314105420889765 %",-3.97%
same,inhibition,"Thailand/16681/1984, Concentration 99.01 uM, Number of replicates 2.0, Standard deviation 1.5090910074055448 %",-2.29%
same,inhibition,"Thailand/16681/1984, Concentration 198.0 uM, Number of replicates 2.0, Standard deviation 0.6382728010796465 %",-1.71%
NC(=O)c1cccc(NC(=O)[C@@H](NC(=O)c2ccc(Oc3ccc(C(F)(F)F)cc3)cc2)c2ccc(OCc3ccccc3)cc2)c1,inhibition,"Thailand/16681/1984, Concentration 49.5 uM, Number of replicates 2.0, Standard deviation 0.7362133947681709 %",6.2%
same,inhibition,"Thailand/16681/1984, Concentration 99.01 uM, Number of replicates 2.0, Standard deviation 0.5343411171689955 %",12.7%
same,inhibition,"Thailand/16681/1984, Concentration 198.0 uM, Number of replicates 2.0, Standard deviation 1.7800185360663037 %",24.8%
NCc1cccc(NC(=O)[C@H]2CCCN(C(=O)OCc3ccccc3)C2)c1,inhibition,"Thailand/16681/1984, Concentration 49.5 uM, Number of replicates 2.0, Standard deviation 3.575781554229458 %",-3%
same,inhibition,"Thailand/16681/1984, Concentration 99.01 uM, Number of replicates 2.0, Standard deviation 3.242498563986953 %",-2.54%
same,inhibition,"Thailand/16681/1984, Concentration 198.0 uM, Number of replicates 2.0, Standard deviation 3.6104892521705123 %",-2.81%
O=Cc1ccc(N2CCC(C(=O)N3CCNC(=O)C34CCCCC4)CC2)cc1,inhibition,[1],13.7%
O=Cc1ccc(N2CCC(C(=O)NC[C@H](O)c3ccc(O)cc3)CC2)cc1,inhibition,[1],11.3%
O=Cc1ccc(N2CCC(C(=O)Nc3c(Cl)cncc3Cl)CC2)cc1,inhibition,[1],12.4%
Cc1ccc(CNC(=O)C2CCN(c3ccc(C=O)cc3)CC2)c(F)c1F,inhibition,[1],5.18%
O=Cc1ccc(N2CCC(C(=O)NCc3coc(-c4ccccc4)n3)CC2)cc1,inhibition,[1],6.6%
O=Cc1ccc(N2CCC(C(=O)NCCCc3cccc(C(F)(F)F)c3)CC2)cc1,inhibition,[1],7.75%
CCCOc1ccc([C@H](C)NC(=O)C2CCN(c3ccc(C=O)cc3)CC2)cc1,inhibition,[1],7.26%
COc1ccccc1N1CCN(C(=O)c2cccc(Cc3cccc4c(CO)cc(C)nc34)c2)CC1,inhibition,"Thailand/16681/1984, Concentration 49.95 uM, Number of replicates 2.0, Standard deviation 0.6431934456432933 %",-0.936%
same,inhibition,"Thailand/16681/1984, Concentration 99.9 uM, Number of replicates 2.0, Standard deviation 0.11282846216281567 %",3.6%
COc1cc(Cc2cc(F)c3c(c2)CC(=O)N3)nc(N2CCNCC2)n1,inhibition,"Thailand/16681/1984, Concentration 49.5 uM, Number of replicates 2.0, Standard deviation 0.6150371592018935 %",-4.98%
same,inhibition,"Thailand/16681/1984, Concentration 99.01 uM, Number of replicates 2.0, Standard deviation 0.5721276213203463 %",-3.56%
same,inhibition,"Thailand/16681/1984, Concentration 198.0 uM, Number of replicates 2.0, Standard deviation 0.9306609149462733 %",-1.84%
Nc1ccc(/C=C/C(=O)C(=O)N2CCN(CCc3ccccc3)CC2)cc1,inhibition,"Thailand/16681/1984, Concentration 49.5 uM, Number of replicates 2.0, Standard deviation 0.14046836541625998 %",23.4%
same,inhibition,"Thailand/16681/1984, Concentration 99.01 uM, Number of replicates 2.0, Standard deviation 0.26272659487750905 %",40.1%
same,inhibition,"Thailand/16681/1984, Concentration 198.0 uM, Number of replicates 2.0, Standard deviation 0.8058693227147314 %",60.1%
c1ccc2[nH]c(CC3CCN(c4ncnc5[nH]ccc45)CC3)nc2c1,inhibition,"Thailand/16681/1984, Concentration 49.5 uM, Number of replicates 2.0, Standard deviation 4.772497632487813 %",-2.04%
same,inhibition,"Thailand/16681/1984, Concentration 99.01 uM, Number of replicates 2.0, Standard deviation 4.5827419837796395 %",-1.49%
same,inhibition,"Thailand/16681/1984, Concentration 198.0 uM, Number of replicates 2.0, Standard deviation 5.067620233885826 %",1.19%
NCc1ccc(NC(=O)[C@@H](NC(=O)OCc2ccccc2)c2ccc(OCc3ccccc3)cc2)cc1,inhibition,"Thailand/16681/1984, Concentration 49.5 uM, Number of replicates 2.0, Standard deviation 0.2921733335266154 %",1.85%
same,inhibition,"Thailand/16681/1984, Concentration 99.01 uM, Number of replicates 2.0, Standard deviation 0.5182536650923871 %",1.48%
same,inhibition,"Thailand/16681/1984, Concentration 198.0 uM, Number of replicates 2.0, Standard deviation 0.5806748336109616 %",1.92%
O=C(Nc1ccc2c(c1)CNC2)c1cc(Cl)cc2[nH]c(-c3cc(C4CC4)[nH]n3)nc12,inhibition,"Thailand/16681/1984, Concentration 99.5 uM, Number of replicates 2.0, Standard deviation 0.13306805316732315 %",94.6%
same,inhibition,"Thailand/16681/1984, Concentration 295.6 uM, Number of replicates 2.0, Standard deviation 0.23606011523727233 %",88.6%
Cc1cc(CO)c2cccc(Cc3cccc(NC(=O)Cc4nnc(C)[nH]4)c3)c2n1,inhibition,"Thailand/16681/1984, Concentration 49.95 uM, Number of replicates 2.0, Standard deviation 1.2741879074535936 %",3.5%
same,inhibition,"Thailand/16681/1984, Concentration 99.9 uM, Number of replicates 2.0, Standard deviation 2.117340332361062 %",15.6%
Cc1cc(CO)c2cccc(NCc3ccc(C)o3)c2n1,inhibition,"Thailand/16681/1984, Concentration 49.95 uM, Number of replicates 2.0, Standard deviation 1.8316716905525268 %",14.8%
same,inhibition,"Thailand/16681/1984, Concentration 99.9 uM, Number of replicates 2.0, Standard deviation 1.056399631157552 %",24.7%
